Test results from paper PMC10764310, “Shape morphing of hydrogels by harnessing enzyme enabled mechanoresponse” (Nature Communications, 2024).

Assays:
thrombin-SNAP [1] = experiment: ITC; Hir-S (108 uM) in the syringe titrated into Thr-S (26.2 uM) in the cell; PBS, pH 7.4; 25 °C; Kd the average of triplicate measurements; conditions: both partners purified
thrombin-SNAP [2] = experiment: AFM-based single-molecule force spectroscopy; Thr-S and Hir-S attached through their SNAP proteins to BS-modified coverslips and cantilevers; PBS, room temperature; pulling speeds 200 to 1600 nm/s; off rate from a two-state Bell-Evans model fit; conditions: both partners purified

B1: hirudin-SNAP (natural protein)
chain: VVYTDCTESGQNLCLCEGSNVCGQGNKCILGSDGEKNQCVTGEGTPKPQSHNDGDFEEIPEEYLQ
Kd (thrombin-SNAP [1]): ~1 nM
koff (thrombin-SNAP [2]): 2.6 s⁻¹
